# The inconclusive results got no clear call from the source; some entries with a clear call stand among them for comparison. Potencies of inconclusive entries are left out as doubtful fits. The source made the active and inactive calls. The call rests on the fitted dose curve; in most records, active means well fitted inhibition curve with a large enough effect; inconclusive means small, poorly fitted or top-dose-only effect; inactive means flat fitted curve, though single readings scatter.
# Molecular target: Aldehyde dehydrogenase, mitochondrial (Homo sapiens) (UniProt P05091)
# Experiment: qHTS for Inhibitors of the Aldehyde Dehydrogenase Family (ALDH2) Primary screen (AID 2061308); further: nearly all actives have a fitted effect of over 55% in size;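 on activity change, negative = inhibition: plate controls were vehicle for no effect and reference inhibitor for full effect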
# Conditions: ALDH2 enzyme inhibition qHTS, 1536-well; series mostly up to 56 µM; activity change, negative = inhibition: at the top concentration
# Potency means the concentration at half of the fitted maximal effect; tags describe the fitted curve by direction and shape.
SMILES,"activity change, negative = inhibition",Potency
COc1cc(C2OCC3(O)C(c4ccc(O[C@@H]5O[C@H](CO)[C@@H](O)[C@H](O)[C@H]5O)c(OC)c4)OCC23O)ccc1O (stereo not given in full),inactive: -5.39% [at 28 µM],–
OCC1=C[C@@H](O)[C@@H]2C=CO[C@@H](O[C@@H]3O[C@H](CO)[C@@H](O)[C@H](O)[C@H]3O)[C@H]12,inactive: 5.38%,–
c1ccc(-n2ccc(-c3nnc4n3CCCCC4)c2)cc1,–,"inconclusive [inhibitor, single point]"
COC(=O)C12C(=O)C(C)=C(O)C1(C)C(C)=CC1C34CCC(OC3=O)C(C)(C)C4CCC12C (stereo not given),inactive: 14.5% [at 28 µM],–
COc1ccc([C@@]2(O)c3c(ccc4c3OC(C)(CCC=C(C)C)C=C4)NC(=O)[C@@H]2OC)cc1 (stereo not given in full),–,"inconclusive [inhibitor, partial curve, poor fit]"
CC1CCC2(C(=O)O)CCC3(C)C(=CCC4C5(C)CCC(O)C(C)(CO)C5CCC43C)C2C1(C)O (stereo not given),–,"inconclusive [inhibitor, partial curve, poor fit]"
CC(=O)Nc1sc2c(c1-c1cc3ccccc3s1)CCNC2,–,"inconclusive [inhibitor, partial curve, poor fit]"
C/C=C/CCC1Cc2cc(O)c(CCCC)c(O)c2C(=O)O1 (stereo not given),–,"inconclusive [inhibitor, partial curve, poor fit]"
Cc1cccc(CNc2ccnc(-c3ccc4ccccc4c3)n2)c1,–,"inconclusive [inhibitor, partial curve, poor fit]"
CC(=O)Nc1cccc(S(=O)(=O)Nc2ccc(C)c(C)c2)c1,inactive: 5.83%,–
CC(=O)N1CCc2cc(S(=O)(=O)Nc3ccc(C)c(C)c3)ccc21,inactive: -6.55%,–
CC(=O)NC[C@H]1CN(c2ccc(N3CCSCC3)c(F)c2)C(=O)O1,inactive: 23.9%,–
Cc1cc(C=CC#N)cc(C)c1Nc1nc(Nc2ccc3scnc3c2)c2[nH]cnc2n1,–,"inconclusive [inhibitor, partial curve, poor fit]"
CC/C=C\C/C=C\C/C=C\CCCCCCCC(=O)OCC(O)COC1OC(CO)C(O)C(O)C1O (stereo not given),–,"inconclusive [inhibitor, single point]"
COc1cc(O)c(C(CC(=O)N2CCCC2)c2ccc3c(c2)OCO3)c(OC)c1 (stereo not given),inactive: -27% [at 114 µM],–
Cc1nc(-c2ccccc2C(C)C)nc(NCc2ccc(-c3cccnc3)cc2)c1C,inactive: 57.9%,–
COc1cc(OC)cc(-c2csc(N3CCC(C(N)=O)CC3)n2)c1,inactive: 11.5%,–
CC(=O)OC[C@H]1O[C@H](O[C@]2(CO)O[C@H](CO)[C@@H](OC(=O)/C=C/c3ccccc3)[C@@H]2O)[C@H](O)[C@@H](O)[C@@H]1O,inactive: -7.12% [at 28 µM],–
CC(=O)Nc1sc2c(c1-c1ccc3[nH]ccc3c1)CCNC2,inactive: 4.64%,–
CCOc1cccc(-c2cc(-c3n[nH]c(=S)n3CC)c3ccccc3n2)c1,–,"inconclusive [inhibitor, full curve, poor fit]"

SMILES,"activity change, negative = inhibition",Potency
O=S(=O)(Nc1nccs1)c1ccc(NCc2cc(Cl)ccc2O)cc1,inactive: 9.46%,–
O=S1(=O)N=C(N2CCOCC2)c2ccccc21,inactive: 6.26%,–
OCc1ccc(-c2ccc3ncnc(NCc4cccs4)c3c2)o1,–,"inconclusive [inhibitor, partial curve, poor fit]"
COc1ccc(-n2[nH]c(=O)c3[nH]c4cc(Cl)ccc4c(=O)c3c2=O)c(C)c1,–,"inconclusive [inhibitor, single point]"
CN(C)CCC[C@]1(c2ccc(F)cc2)OCc2cc(C#N)ccc21,inactive: -6.37%,–
COCc1c(O)c(C(=O)O)c(C)c2c1OC(=O)c1c(C)cc(O)c(CO)c1O2,–,"inconclusive [inhibitor, partial curve]"
Cc1cc(C)nc(NC(=S)N2CCN(c3cccc(C#N)c3)CC2)c1,inactive: -8.58%,–
COc1ccc(C2c3ccc4ccccc4c3Oc3ncn(CCN4CCOCC4)c(=N)c32)cc1OC (stereo not given),–,"inconclusive [inhibitor, full curve, poor fit]"
C=C(C)C1CC(O)C(C)C12CC(O)C1(C)OC1C2O (stereo not given),inactive: 5.91%,–
CC(C)[C@@H](C(=O)O)N1Cc2c(cc(O)c3c2O[C@]2(C3)[C@H](C)CCC3C(C)(C)[C@H](O)[C@H](O)C[C@@]32C)C1=O (stereo not given in full),inactive: 14.1% [at 28 µM],–
CN1CCN(c2ccc(CNc3nn4c(=O)c5ccccc5nc4s3)cc2)CC1,–,"inconclusive [inhibitor, single point]"
CC1CCN(C(=O)CC#N)CC1N(C)c1ncnc2[nH]ccc12 (stereo not given),inactive: 3.41%,–
NC(=O)C1CCN(c2nc(-c3ccccc3)cs2)CC1,inactive: 6.93%,–
O=c1c(Nc2ccc(F)c(C(F)(F)F)c2)c(Nc2nnc(-c3ccncc3)s2)c1=O,–,"inconclusive [inhibitor, partial curve]"
CC(C)(C)CCN1C[C@@H]2C(CNC(=O)c3cc(Cl)cc(Cl)c3)[C@@H]2C1 (stereo not given in full),inactive: 1.39%,–
C/C=C/C=C/C(O)=C1\C(=O)[C@]2(C)C3C(C(=O)CC/C=C/C)=C(O)C4(C)C1[C@]1(C)O[C@@]4(O)[C@@]3(C)O[C@@]12O,–,"inconclusive [inhibitor, partial curve, poor fit]"
O=C(O)CC1CC(c2ccccc2)=NO1 (stereo not given),inactive: 6.85% [at 16.9 µM],–
Nc1ccc(-c2ccnc(NCCCNC(=O)c3c(Cl)cccc3Cl)n2)cc1,–,"inconclusive [inhibitor, single point]"
O=C1CCCC2=C1C1(CCSCC1)N=C(Nc1nc3ccccc3o1)N2,–,"inconclusive [inhibitor, partial curve, poor fit]"
CCCn1c(C)nc2c(N(CCN(C)C)Cc3ccccc3)nc(C)nc21,inactive: 10.1%,–

# From PubChem BioAssay (NCATS)
